# In PubChem BioAssay AID1240 (Sanford-Burnham Center for Chemical Genomics, 2008):
# The whole screen tested about 50,000 compounds, of which about 800 (1.6%) showed an effect of 50% or more. The list shows a part of the results.
# Target: Bcl-2-like protein 10 (Homo sapiens) (UniProt Q9HD36)
# Assay: Phenotype converters, Bcl-B/TR3 peptide binding displacement, primary biochemical FP (AID 1240);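 note: 0% = Bcl-B with tracer peptide and DMSO and 100% = tracer peptide lacking Bcl-B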
# Settings: GST-Bcl-B / FITC-TR3 peptide fluorescence polarization; stronger effect = higher value; compound at 3.75 mg/L
# UniProt Q9HD36, sequence (Q9HD36 whole entry, looked up): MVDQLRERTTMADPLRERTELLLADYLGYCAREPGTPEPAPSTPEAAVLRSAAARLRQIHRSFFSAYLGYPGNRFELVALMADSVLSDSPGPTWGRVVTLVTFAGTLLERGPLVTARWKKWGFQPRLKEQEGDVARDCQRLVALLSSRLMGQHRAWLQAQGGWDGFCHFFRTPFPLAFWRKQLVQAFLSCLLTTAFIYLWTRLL
row,Structure (SMILES),displacement [%]
1,COc1ccc(OC)c(-n2c(O)c(C=Nc3ccccc3C)c(=O)[nH]c2=O)c1,4.2
2,Cc1ccc(NC(=O)c2ccccc2[N+](=O)[O-])cc1,8.3
3,O=C(/C=C/c1ccc(F)cc1)N1CCN(CCN2C(=O)c3cccc4cccc(c34)C2=O)CC1,8
4,CCOC(=O)/C(C#N)=C1/N(C)c2ccccc2N1N,1.4
5,Cc1ccccc1OCC(=O)Nc1ccccc1-c1ccccc1,-7.8
6,CCC(CO)Nc1cc(Cl)ccc1[N+](=O)[O-] (stereo not drawn),12.1
7,O=C1C(C=NCCN2CCN(C(=S)Nc3ccccc3)CC2)=C(O)c2ccccc21,-3.4
8,COc1nc(-c2ccccc2)cc(-c2ccc(OC)c(OC)c2)n1,-5.1
9,COc1ccc2c(c1OC)C(=O)OC2Nc1ccc(I)cc1 (stereo not drawn),-0.2
10,NC(=O)C1CCN(C(=O)COc2ccccc2Cl)CC1,-0.3
11,Cc1ccc(N2C(=O)/C(=C/c3ccc(C(=O)O)cc3)SC2=S)cc1C,11.8
12,O=C(NCCc1cccc(Cl)c1)c1ccccc1Cl,-6.7
13,CCCc1noc(-c2ccc(C(C)(C)C)cc2)n1,14.8
14,CCOC(=O)c1c(-c2ccccc2)oc2ccc(O)c(CN3CCCC(C)C3)c12 (stereo not drawn),11
15,O=S(NCc1ccco1)C12CC3CC(CC(C3)C1)C2 (stereo not drawn),-8.4
16,O=C(COc1ccc([N+](=O)[O-])cc1)NNC(=O)c1ccccc1Cl,11.6
17,O=c1cc(O)nc(SCc2ccc(Cl)cc2)[nH]1,8.1
18,O=C1c2ccccc2C(=O)c2c1cccc2N1CCN(C/C=C/c2ccccc2)CC1,17.5
19,C=CCc1ccccc1OCCOc1ccc(/C=C2/SC(=S)N(C)C2=O)cc1,11.4
20,O=C(c1ccc2ccccc2c1)N1CCCC1,-5.7
21,CCOC(=O)c1c(-c2ccccc2)oc2cc(Br)c(OC(=O)c3ccco3)cc12,8.8
22,Nc1nnc(COc2ccccc2)s1,0.6

row,Structure (SMILES),displacement [%]
1,O=C(Nc1ccc(-c2nc3ncccc3o2)cc1)c1ccc(-c2ccc(Cl)cc2Cl)o1,28.3
2,CCN(CC)S(=O)(=O)/N=C/c1ccc(Cl)c(Cl)c1,3
3,Cc1ccc2oc(-c3cc(NC(=O)/C=C/c4ccccc4)ccc3O)nc2c1,10.6
4,CN1C(=O)C(c2ccccc2)C(=O)c2ccccc21 (stereo not drawn),-5.3
5,CC(=O)N1CCN(c2ccc(NC(=O)c3cccs3)cc2)CC1,4.3
6,COc1cc(/C=C2/C=C(c3ccc(C(C)(C)C)cc3)OC2=O)c([N+](=O)[O-])cc1OC,-49.6
7,COc1cc(-c2ccc(NC(=O)c3ccc(Cl)cc3Cl)c(OC)c2)ccc1NC(=O)c1ccc(Cl)cc1Cl,12.4
8,Cc1cc(Cl)ccc1OCCCC(=O)N1CCN(c2cccc(C)c2C)CC1,-8.6
9,CC(=O)CC(=O)Nc1ccc(Cl)cn1,0.3
10,CS(=O)(=O)N(CC(=O)N(Cc1ccccc1)Cc1ccccc1)c1ccc(Cl)cc1,10.6
11,COC(=O)c1c(N)c(C#N)c(C)n1Cc1ccccc1,-4.7
12,O=C1CCCc2c1[nH]c1c(Br)cccc21,-10.1
13,CCOc1ccc(/C=N/N2CCN(Cc3ccccc3Cl)CC2)cc1OC,11.2
14,COc1cccc(C(=O)OCC(=O)c2ccc(Cl)cc2)c1,-1
15,COc1cc2c(cc1C)/C(=N\OC(=O)c1cc(OC)c(OC)c(OC)c1)CCC2,14.3
16,COc1ccc(-c2nocc2C#N)cc1OC,7.2
17,COC(=O)C(C)N(C(=O)c1ccc(Cl)cc1)c1c(C)cccc1C (stereo not drawn),16.4
18,CC(NC(=O)c1cc2n(n1)C(C(F)(F)F)CC(c1ccc(Br)cc1)N2)c1ccccc1 (stereo not drawn),-1.8
19,Cc1ccc(SCC(=O)Nc2cccc(Br)c2)cc1,17.6
20,Cc1cc(C)c(N2C(=O)c3ccc(C(=O)Nc4ccccc4C(=O)O)cc3C2=O)c(C)c1,3.3
21,COc1cc(C(=S)N2CCOCC2)cc(Br)c1O,-12.3
22,Cc1cc(C)nc(NC(=O)c2cccc(F)c2)c1,-4.5

row,Structure (SMILES),displacement [%]
1,Cc1ccc(-c2[nH]n3c(=O)c4c(nc3c2C)CCC4)cc1,60.8
2,O=C(CSc1nnc(-c2ccccc2)c(-c2ccccc2)n1)N1CCOCC1,-6
3,Cc1cc(OCC(=O)Nc2ccc(Cc3ccncc3)cc2)ccc1Cl,0.4
4,O=[N+]([O-])c1ccc(-c2nnc(-c3ccccc3)c(-c3ccccc3)n2)cc1,12.1
5,COc1ccc(C(=O)N2CCN(Cc3ccccc3)CC2)c(OC)c1,-8.9
6,O=C(N/N=C/c1ccccc1[N+](=O)[O-])C(=O)Nc1cccc2ccccc12,6.1
7,C/C(=C\C(=O)ONC(=O)c1ccccc1)NCc1ccccc1,0
8,O=C(CN1C(=O)c2ccc([N+](=O)[O-])cc2C1=O)N1CCCCC1,-9.1
9,O=C(Nc1c(F)cc(F)cc1Br)c1nc2nc(-c3ccccc3)cc(C(F)(F)F)n2n1,10.8
10,OCCNc1ncc(-c2ccccc2)cn1,-7.1
11,NS(=O)(=O)c1ccc(NC(=O)c2ccccc2I)cc1,-13.4
12,O=S(=O)(Nc1ccccc1CO)c1ccccc1,7
13,O=C(c1cccs1)N1CCN(C2CCN(Cc3ccccc3)CC2)CC1,0.4
14,Cc1ccc(N(CC(=O)Nc2cccc(Cl)c2C)S(C)(=O)=O)cc1,-5
15,FC(F)(F)c1ccc2nnc(-c3cc(Br)ccc3OCc3ccccc3)n2c1,-10.6
16,CCOC(=O)c1ccc(NC(=O)C(=O)NCCc2ccc(OC)c(OC)c2)cc1,-4.4
17,O=[N+]([O-])c1ccc2c(c1)C1C=CCC1C(c1ccccc1Cl)N2 (stereo not drawn),4.5
18,COC(=O)c1ccccc1NC(=O)Cn1cnc([N+](=O)[O-])n1,11.9
19,COC(=O)c1c(-c2ccccc2Cl)csc1N,7.8
20,CCOC(=O)c1c(C)nc2c(c1-c1ccc(Br)cc1)C(=O)CC(C)(C)C2,-6.2
21,COc1ccc(S(=O)(=O)N/N=C/c2ccc3c(c2)OCO3)cc1,-5.9
22,CCc1nnc(NS(=O)(=O)c2ccc(N=Cc3c(C)[nH]n(-c4ccc(Cl)cc4)c3=O)cc2)s1,4.6

row,Structure (SMILES),displacement [%]
1,C(=N\N(c1ccccc1)c1ccccc1)/c1ccccc1,10.8
2,COc1ccc(CCNC(=O)C(=O)NCCc2ccc(OC)c(OC)c2)cc1,-16.4
3,O=C(NC12CCC(O)C(SC1)/C2=N/O)c1ccccc1 (stereo not drawn),12.7
4,O=C(N/N=C/c1ccc([N+](=O)[O-])cc1)c1cc(C23CC4CC(CC(C4)C2)C3)[nH]n1,-9.4
5,CCOc1cc(C(=O)Nc2ccc(Cl)c(-c3nc4ncccc4o3)c2)cc(OCC)c1OCC,35.2
6,CCOc1ccc2cc(S(=O)(=O)N3CCC(C)CC3)ccc2c1,16.4
7,Cc1c(OC(C)C)ccc2c(-c3ccccc3)cc(=O)oc12,-2.5
8,COc1ccc(C2CC(=O)C3=C(C2)Nc2ccccc2NC3c2c[nH]c3ccccc23)cc1 (stereo not drawn),-11.9
9,Nc1nnc(SCC(=O)NCc2ccccc2)s1,12.4
10,CC(=O)c1ccc(N2C(=O)C3C4C=CC(CC4)C3C2=O)cc1 (stereo not drawn),9.8
11,CC(C(=O)N1CCN(C)CC1)N1C(=O)c2ccccc2C1=O (stereo not drawn),7.1
12,Cc1nc2sc(C(=O)c3ccc(Br)cc3)c(N)c2c(C)c1C,132
13,O=[N+]([O-])c1ccc(CSc2nnc(-c3cccc(F)c3)n2-c2ccccc2)cc1,11.4
14,CC(C)(C)C(=O)COc1cc2oc(=O)c3c(c2cc1Cl)CCC3,-0.7
15,CCOC(=O)C1=C(C)NC(=S)NC1c1ccc(OCc2ccc(Cl)cc2Cl)c(OC)c1 (stereo not drawn),-9.4
16,COc1ccc(COC(=O)C2=C(C)NC3=C(C(=O)CC(C)(C)C3)C2c2cccs2)cc1 (stereo not drawn),-11.4
17,CC(=O)Oc1cccc(N2C(=O)c3ccc(C(=O)Nc4cccc(C(=O)NCC(C)C)c4)cc3C2=O)c1,-8.7
18,COc1ccc(C(NC=O)c2ccc(OC)cc2)cc1,-5.6
19,Cc1nn(C)c(C)c1N=Cc1c(O)ccc2ccccc12,11.6
20,O=C(NCCCNc1ccc([N+](=O)[O-])cc1Cl)c1cccnc1,10.8
21,CC(=O)NN=C1CC(C)(C)NC(C)(C)C1,5.9
22,COc1ccc(C(=O)NC(NC(=S)Nc2sc3c(c2C(N)=O)CCCC3)C(Cl)(Cl)Cl)cc1 (stereo not drawn),3.9

row,Structure (SMILES),displacement [%]
1,O=C(CN(c1ccccc1)S(=O)(=O)c1ccccc1[N+](=O)[O-])NC1CCCCC1,7.8
2,COc1cccc(C2/C(=C(\O)c3ccc(Cl)cc3)C(=O)C(=O)N2c2cccnc2)c1 (stereo not drawn),-17.8
3,CC1(C)CC(=O)C2=C(C1)NC1=C(C(=O)c3ccccc31)C2c1ccc(OC(=O)c2sc3ccccc3c2Cl)cc1 (stereo not drawn),1.4
4,O=C(NCc1ccccn1)c1ccccc1Oc1ccccc1,12.3
5,CCOC(=O)c1ccccc1NC(=O)CN(c1cccc([N+](=O)[O-])c1)S(=O)(=O)c1ccccc1,-5
6,Cc1cc(NNc2ccc(Cl)cc2)c(C(N)=O)c(C)n1,0
7,COc1cccc(NC(=O)CN(c2cc(Cl)cc(Cl)c2)S(C)(=O)=O)c1,8.6
8,Cc1ccc(-c2nc3ccccc3s2)cc1NC(=O)c1ccc(Br)o1,-3.3
9,COc1ccc(S(=O)(=O)N2CCCCCC2)cc1,-7.8
10,Cc1ccc(N2C(=O)C3C4c5ccccc5C(C)(c5ccccc54)C3C2=O)cc1 (stereo not drawn),3.5
11,O=C(O)CCCCCN1C(=O)C(=O)/C(=C(/O)c2ccc(Cl)cc2)C1c1ccccc1[N+](=O)[O-] (stereo not drawn),-2.6
12,O=C(NCCCO)C(=O)Nc1cccc(Cl)c1Cl,8.7
13,O=C(Nc1ccc2nn(-c3ccc(Cl)cc3)nc2c1)c1ccccc1I,7.4
14,Cc1cc(C)c(S(=O)(=O)Nc2ccc(C(N)=O)cc2)c(C)c1,12.7
15,CN1CCN(c2ccc3c4c(cccc24)C(=O)c2ccccc2-3)CC1,2.9
16,O=C(O)CSc1nc2ccc(NC(=O)c3ccccc3)cc2s1,2.9
17,C=CCN1C(=O)/C(=C\c2ccco2)C(C(=O)OC)=C1C,65.4
18,COc1ccc([N+](=O)[O-])cc1-c1ccc(/C=C(\C#N)c2nc3ccc(C)cc3[nH]2)o1,-8.5
19,CCOC(=O)c1c(NC(=O)Cn2cnc([N+](=O)[O-])n2)sc2c1CCC2,9.4
20,CCOCCCNc1cc(C)c(C#N)c2nc3ccccc3n12,-5.3
